Laboratory results from PubChem BioAssay AID1963576 (National Center for Advancing Translational Sciences (NCATS), 2024).
Screen size: about 46,000 compounds; about 60 (0.1%) were called active. About 3% were inconclusive and are not listed. Calls follow the shape of the dose curve; as a rule, active = well fitted inhibition curve with a large enough effect; inconclusive = small, poorly fitted or top-dose-only effect; inactive = no such curve, though single readings can be large or run the other way. This is one part of the list.

Assay: Primary qHTS assay for Inhibitors of ovarian cancer metastasis using an organotypic tumor microenvironment (TME) model. Also: nearly all actives have a fitted effect of over 65% in size.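 As to activity change, negative = inhibition: plate controls were DMSO wells for no effect and tomatine positive control wells for full effect.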
Conditions: SKOV3ip1-GFP adhesion/invasion on 3D omental model, fluorescence; series mostly up to 45.8 µM; activity change, negative = inhibition: at the top concentration
Method in brief: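 A 3D layer of primary human omental fibroblasts, mesothelial cells, fibronectin and collagen I, grown 48 hr, received SKOV3ip1-GFP cells in serum-free medium plus compounds at 0.36-46 umol/L. After 2 hr RT and 16 hr 37 C, fixed adherent GFP cells were counted; normalized to DMSO and tomatine.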

Activity change, negative = inhibition, inactive:
COc1cccc(CNS(=O)(=O)c2ccc(N3CCCCS3(=O)=O)cc2)c1 -0.902%, COc1cccc(CNC(=O)CCCn2nc(C)n3c(cc4sccc43)c2=O)c1 -1.52%, COc1ccc(C2CC(=O)c3c([nH]c(C(=O)OC4CCCCCC4)c3C)C2)cc1OC (stereo not given) 1.76%, COc1ccc(-n2nnc(-c3nc(-c4ccccc4C)no3)c2N)cc1Cl 1.51%, COc1ccc(-c2cc(C(=O)N3CCN(c4ccc(F)cc4)CC3)no2)cc1OC -6.11%, COC(=O)c1ccccc1NC(=O)CCc1c(C)nc2c(c(C)nn2-c2ccccc2)c1C 2.44%, COc1ccc(Cn2ccc3nc(C)c(C(=O)NCc4ccc(OC)cc4OC)cc3c2=O)cc1 -1.24%, COc1ccc(NC(=O)C(C)n2c(C)c3cnn(-c4ccccc4)c(=O)c3c2C)cc1Cl (stereo not given) 27.9%, O=C(Cn1ncc2c([nH]c3ccccc32)c1=O)NCc1cccc(Cl)c1 -0.148%, CCOC(=O)c1cnc2c(C)cc(Cl)cc2c1NCCc1ccc(OC)c(OC)c1 -0.0812%, Cc1cccc(OCC(=O)N(Cc2ccc(C(C)C)cc2)Cc2ccco2)c1C -7.47%, O=C(Nc1nnc(S(=O)(=O)N2CCCC2)s1)c1ccccc1F -2.43%, CCN(C(=O)c1nn(-c2ccc(C)cc2)c(=O)c2c1c1ccccc1n2C)c1ccc(F)cc1 0.796%, O=C(NCCc1ccccc1)c1ccc(CSc2nc3ccncc3n2Cc2ccccc2F)cc1 -20.3%, CC(C)COc1ccc(-c2nonc2NC(=O)c2ccc(F)cc2)cc1 -17.3%, CCc1cnn2c(NCc3ccc[n+]([O-])c3)cc(N3CCCC[C@@H]3CCO)nc12 -2.2%, CCOc1ccc(NC(=O)Cc2ccc(-n3c(C)nc4cccnc43)cc2)cc1 -22%, O=C(CC1N=C2c3ccccc3N=C(SCc3ccccc3Cl)N2C1=O)NCc1cccs1 (stereo not given) -14%, COc1ccc(NC(=O)C(=O)NCC(c2cccnc2)N2CCc3ccccc3C2)cc1 (stereo not given) 9.33%, COc1ccc(NC(=O)C(NC(=O)/C=C\c2ccc3c(c2)OCO3)c2ccc(OC)cc2)cc1 (stereo not given) 7.13%, O=C(Nc1cc(Cl)ccc1Cl)c1cc(S(=O)(=O)N2CCCc3ccccc32)ccc1F -13.2%, Cc1ccc(NC(=O)CN2C(=O)c3ccccc3Sc3ccc(C(=O)N4CCCC4)cc32)cc1 15.5%, Cc1ccc(-n2nc(C(=O)Nc3cccc(C#N)c3)c3c4ccccc4n(C)c3c2=O)cc1 -9.3%, CC1=C(C(=O)Nc2cccnc2)C(c2ccc(Cl)cc2)n2nc(SCc3ccccc3)nc2N1 (stereo not given) 0.919%, COC(=O)c1c(NC(=O)COc2c(C)ccc(C)c2C)sc2c1CCC(C)C2 (stereo not given) -7.14%, Cc1cc2n(n1)CCC(=O)N2Cc1ccc(C(=O)Nc2ccc(Br)c(C)c2)cc1 -0.955%, O=C(NCCc1ccc(Cl)cc1)c1nc(-c2cccc(F)c2)n2c1CCCCC2 2.3%, O=C(Cn1ncc2ccsc2c1=O)N1CCN(c2ccccc2)CC1 3.64%, CCCSc1nc2c(c(=O)[nH]1)C(c1ccc(F)cc1F)CC(=O)N2 (stereo not given) 2.73%, CCN(CC)c1cc2c(cc1F)c(=O)c(S(=O)(=O)c1ccc(C)cc1)cn2Cc1ccc(F)cc1 -11.3%, CCOc1ccccc1Nc1sc(C(=O)c2ccc(Cl)cc2)c(N)c1C(=O)NCCc1ccccc1 1.51%, CCCc1nnc(NC(=O)Cc2coc3ccc(C)cc23)s1 4.78%, O=C(Cn1c(=O)n(CCc2ccccc2)c(=O)c2c3c(sc21)CCCC3)Nc1ccc(F)c(F)c1 -9.23%, Brc1ccc(CN2CCc3nc(N4CCN(c5ncccn5)CC4)ncc3C2)cc1 1.7%, CC(C)c1ccccc1Oc1c(C(F)(F)F)oc2c(CN3CCN(C)CC3)c(O)ccc2c1=O -1.4%, COc1ccc(NC(=O)CSc2nc3c(c(=O)[nH]2)CCC3)cc1 -2.23%, CCOC(=O)c1c(C)c(C(=O)NCc2ccc(Cl)cc2)c(C)n1CC 0.266%, COc1ccc(NCc2cc3ccc(OC)cc3n(CC(=O)Nc3cccc(OC)c3)c2=O)cc1 -6.26%, COc1ccc(OC)c(S(=O)(=O)Nc2cccc(-c3ccc(N4CCCCCC4)nn3)c2)c1 3.78%, CCOc1ccc(-c2nc(CNC(=O)Nc3ccccc3)c(C)o2)cc1 -18.8%, COc1ccccc1N1CCN(C(=O)c2cc3c(=O)oc4ccc(C)cc4c3s2)CC1 -7.64%, Cc1ccc(CNC(=O)c2cn(C)c3ccc(S(=O)(=O)N4CCOCC4)cc3c2=O)cc1 1.56%, COc1cc(NC(=O)c2nn(-c3ccc(F)cc3)c(=O)n(C)c2=O)cc(OC)c1OC 9.83%, O=c1cc(CN2CCN(S(=O)(=O)c3ccccc3)CC2)nc2sc(-c3ccccc3Cl)nn12 -3.35%, Cc1ccc(C)c(NC(=O)c2nnn(CC(=O)Nc3cccc(C)c3C)c2N)c1 17.9%, CC(=O)c1ccc(NC(=O)COc2ccccc2-c2nc(-c3ccccc3)no2)cc1 11.7%, COCc1cc(C)nc2sc3c(c12)NC(c1ccccc1C(=O)O)N(c1ccc(OC)cc1)C3=O (stereo not given) 5.78%, CC(Oc1ccccc1)C(=O)N1CCN(Cc2cc(=O)n3nc(-c4ccccc4Cl)sc3n2)CC1 (stereo not given) -2%, CCOC(=O)c1c(C)[nH]c(C)c1S(=O)(=O)NCC(=O)N1CCN(c2cc(Cl)ccc2C)CC1 3.28%, CCc1ccc(C(=O)c2cn(CC(=O)Nc3ccc4c(c3)OCCO4)c3ccc(C)cc3c2=O)cc1 -4%, O=C(CS(=O)(=O)c1nc(-c2ccc(Cl)cc2)cn1-c1ccccc1)Nc1ccc(F)cc1F -19%, Cc1ccc(-n2c(SCCC(C)C)nc3sc4c(c3c2=O)CC(C)(C)OC4)cc1 -2.7%, CCOc1ccc(CNC(=O)C2CCN(C(=O)c3sccc3-n3cccc3)CC2)cc1 -0.634%, COc1ccc(-c2cc(C(C)=O)c(C)n2CCC(=O)NC2CCCCC2)cc1 6.02%, COc1ccc(/C=C/c2onc(C)c2S(=O)(=O)N2CCC(C(=O)N3CCCCC3)CC2)cc1 1.69%, COc1ccc(OCCSc2nc3ccccc3n2CC(=O)N2CCOCC2)cc1 4.46%, COc1ccc(NC(=O)CCCc2nnc3n(CCC(C)C)c(=O)c4sccc4n23)cc1Cl -0.807%, COCCNc1ncnc2onc(-c3ccc(F)cc3)c12 -11.5%, COc1ccccc1CNC(=O)c1cc2cc(C)ccc2n1C 6.35%, COc1cc(CNc2ccc3[nH]c(=O)[nH]c3c2)cc(Br)c1OCc1ccc(F)cc1 -7.3%, CN(C)c1cccc(C(=O)N2CCC(c3ccncc3)CC2)c1 11.9%, CCOc1ccc(CNC(=O)CN2C(=O)C3CCCCN3c3ccc(C(=O)N4CCCC4)cc32)cc1 (stereo not given) -22.2%, Cc1ccc(S(=O)(=O)c2nc(S(=O)(=O)c3ccc(C)cc3)c(NC(C)C)s2)cc1 0.243%, CCOc1ccc(CNC(=O)c2cnc3sc(N4CCCCCC4)nn3c2=O)cc1OC -1.64%, CN1CCN2c3ncccc3Cc3ccccc3C2C1 (stereo not given) 19.4%, COc1ccc(Cn2ccc3nc(C)c(C(=O)N4CCN(c5cc(C)ccc5C)CC4)cc3c2=O)cc1 -23.8%, O=C(O)CCc1ccc(-c2cccs2)n1CC(=O)Nc1ccccc1C(F)(F)F 2.75%, O=C(CSc1nc(-c2ccccc2)nc2c1CCCC2)c1ccc(Cl)cc1 28.6%, CCCNC(=O)C1CCC(Cn2c(=O)c3sccc3n(CC(=O)Nc3ccccc3C)c2=O)CC1 (stereo not given) -2.11%, CCCN(C(=O)c1sc2nc3n(c(=O)c2c1C)CCCC3)c1ccccc1C 13.6%

outcome, inactive:
CCOC(=O)C1=C(CN2CCCCC2)NC(=O)NC1c1ccc(C)cc1 (stereo not given), CC1CCCCN1Cc1c(O)ccc2c(=O)c(-c3ccccc3)coc12 (stereo not given), CCOC(=O)c1cc(-c2ccc(F)cc2)n(CCC(=O)NCc2ccccc2OC)c1C, Cc1ccc(N2CC(NC(=O)c3ccco3)CC2=O)cc1C (stereo not given), CCOC(=O)C1CCCN(Cc2cn3c(-c4ccc(Br)cc4)nnc3s2)C1 (stereo not given), CN(C(=O)c1ccc2c(c1)N(Cc1ccccc1F)C(=O)c1ccccc1S2(=O)=O)C1CCCCC1, CCCN1CCN(c2ncnc3sc(C(=O)Nc4cccc(Cl)c4C)c(C)c23)CC1, O=S(=O)(Nc1cccc(-c2ccc(N3CCOCC3)nn2)c1)c1ccccc1C(F)(F)F, CCOc1ccc(NC(=O)[C@H](Cc2ccccc2)N2Cc3ccccc3C2=O)cc1, Cn1c(-c2ccc(S(=O)(=O)N3CCCC3)cc2)csc1=Nc1ccc(Cl)c(Cl)c1, CCC1CCc2nc3sc(C(=O)Nc4ccc(F)c(F)c4)c(N)c3cc2C1 (stereo not given), Cc1ccccc1NC(=O)CSc1nc2ccccc2c2nc(CCn3c(C)nc4ccccc43)nn12, Cc1cc(C)c(/C=C/c2onc(C)c2S(=O)(=O)N2CCC(C(=O)Nc3ccc(Cl)cc3C)CC2)c(C)c1, O=C(COCc1cc(-c2cccs2)on1)NCc1cccc(Cl)c1, CCn1c(C(=O)N2CCC(C(=O)NCCCOC)CC2)cc2sccc21, Cc1cn(S(=O)(=O)c2ccc(F)c(Cl)c2)cn1, Cc1ccccc1NC(=O)c1c(NC(=O)C(F)(F)F)sc2c1CCCCC2, O=c1c2c3c(sc2n(Cc2cc(=O)n4ccccc4n2)c(=O)n1-c1ccccc1)CCC3, O=C(CCSCc1ccccc1Cl)N1CCN(c2ccc(F)cc2)CC1, Cc1ccc(NC(=O)C(Cc2ccccc2)NS(=O)(=O)c2cccs2)cc1Cl (stereo not given), Cc1ccc(-c2noc(CSc3nnc(C)n3-c3ccc(C)cc3)n2)cc1, COc1ccccc1CNC(=O)CN1C(=O)c2cccnc2Oc2ccccc21, Cc1ccc(C)c(NC(=O)Cn2c(=O)n(Cc3ccc4c(c3)OCO4)c(=O)c3ccc(C(=O)NC4CCCCC4)cc32)c1, CCc1cccc(C)c1NC(=O)C(CC)n1ncn2c(cc3cc(C)ccc32)c1=O (stereo not given), Cc1cccc(NC(=O)C2CCN(S(=O)(=O)c3ccc4c(c3)CCCC(=O)N4)CC2)c1
